# Measurements as given in publication PMC12136788.
# Some of the results follow.
# T1: UNK ZnF1-3 (human, UniProt Q9C0B0 31-174)
# T1 sequence: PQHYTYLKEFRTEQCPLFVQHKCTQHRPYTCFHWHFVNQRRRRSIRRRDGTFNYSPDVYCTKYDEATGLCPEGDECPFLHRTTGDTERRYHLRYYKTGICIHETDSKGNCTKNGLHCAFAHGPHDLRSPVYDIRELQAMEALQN
# B1: chr20:57486015:57486016:+_ENSG00000087460_ENST00000306090|hu_hu|FALSE|FALSE (ssRNA)
# RNA: GGGAGUUCUACAGUCCGACGAUCGUGGCCUUUUUUCCUUUUUCUGUAGGCCGCCUUAAGCUUUCUAAAUUUGGAACAUCUAAGCAAGCUGAAGGGAAAAGGGGGUUUCGCAAAAUCACUCGGGGGAAGGGAAAGGUUGCUUUGCAACAGAGGAUUGAGCAUCA
# B2: chr20:57015987:57015988:+_ENSG00000124164_ENST00000520497|hu_hu|motif|central (ssRNA)
# RNA: GGGAGUUCUACAGUCCGACGAUCUCCAUAACCUUCUUAACUUCGGUGUCAUCCAAAGAAGAACUCAGAGACUUAGACACGGUUGGUGUUUCUGUCUUUGAUGCAGUUGUGGAUAUAAUUUUAUUUAUUUCUACAUCAUGCAGACAACAGAGGAUUGAGCAUCA
# B3: chr1:231700301:231700302:+_ENSG00000116918_ENST00000366639|hu_mus|FALSE|FALSE (ssRNA)
# RNA: GGGAGUUCUACAGUCCGACGAUCGUCGGCCACGCCCAGCAGGUAGUCAACAGGGGUGAGCUUCAGUCUCCAUGUAACCAGCUGCUUCUCUUGUCCUUCCGCGGGAGGAGUCUUGCUCUCUUUCCCACUGUCUUCUGCUGUAAACAACAGAGGAUUGAGCAUCA
# B4: chr19:10649910:10649911:-_ENSMUSG00000024666_ENSMUST00000025568|mus_mus|motif|central (ssRNA)
# RNA: GGGAGUUCUACAGUCCGACGAUCCAUCUUCUGCCUGAUUUGUGGGACUCCCAAGGGUACAUUCCACAGUUCCGAAGAAAAUGACGGCUGGUUUUCUCUCUGCCCAGAACUCCAGGAGAGAUGUUUAGUUUUUCCAAAUCGGAGCAACAGAGGAUUGAGCAUCA
# B5: chr8:117878989:117878990:-_ENSG00000164754_ENST00000297338|hu_hu|hu_hu_hu_mus_True|98_98 (ssRNA)
# RNA: GGGAGUUCUACAGUCCGACGAUCCCAGAGGCCCUCGUUUACUGAGAACAAAAUGUGCGUAGAACAUUUUUCUUAUUUGCUAUGAAAUAAGAAGAAACCUGGAUCUCGGCGGGGAGCCGGGAGGGGUGGGUGGCCCGGGGAGGGCAACAGAGGAUUGAGCAUCA
# B6: chr5:23948154:23948155:-_ENSMUSG00000028959_ENSMUST00000030800|mus_hu|FALSE|FALSE (ssRNA)
# RNA: GGGAGUUCUACAGUCCGACGAUCCAGGGGUGCCACCCCUGCUUCCCGAGCCAGGAUCCUCUCAAGGCAGGGCAUAAACUGCUGUUCCAGGGGCAGGUAGUUCAGUCGCCCAAAGGGCAGGACCAACUUCUGUACCACCUUGCUCAACAGAGGAUUGAGCAUCA
# B7: 55168479_55170727_320_CDS_ENSMUSG00000024978_ENSMUST00000061856|mouse|control|control (ssRNA)
# RNA: GGGAGUUCUACAGUCCGACGAUCUUCCCAGCUCUGUGGCGUGCAGGAAUAGCAGCACCUUCCCACGAAGGGCCUCUUCCGGCUCAUAAGGCUCUCCUUCCAUUUCAGUGUUGCAGAUCUGAAGAAGGUAGGUUUGAACCCACACAACAGAGGAUUGAGCAUCA
# B8: chr17:57762449:57762450:+_ENSG00000141367_ENST00000269122|hu_hu|FALSE|FALSE (ssRNA)
# RNA: GGGAGUUCUACAGUCCGACGAUCUUCAUGUUUUUCCAAACGCUGAGCAAGCGAGAUAUUGUCAAAGUUGUCAUAAGCAUCUAUUGAUGUUCGCAGAGCCUGAUAAUCUUCUUCUGUAAUAAAAAGAUUGUUCAAUGAUUCAUUCAACAGAGGAUUGAGCAUCA
# B9: chr3:144353948:144353949:-_ENSMUSG00000037062_ENSMUST00000163279|mus_mus|motif|central (ssRNA)
# RNA: GGGAGUUCUACAGUCCGACGAUCAAAACUCCAAAGCCAAGAGACCCUAGUAAGGCCUAGUAUUUAAGUCAUCUGAUUCCGGUUGGGCAGCAAGGUAAAAAGGAGUUUUUACUUUAUUCUUUGGCUAUUGUAUCUAAUAAAUGACAACAGAGGAUUGAGCAUCA
# B10: 78449589_78467943_3185_3pUTR_ENSG00000149256_ENST00000278550|human|control|control (ssRNA)
# RNA: GGGAGUUCUACAGUCCGACGAUCCUUGGCCACGAAUAACACAAGCAUGCCCUCCAUCAAAGGGGUUCUCCCCGGGGAUUAUGUGCGUGCUGUCCCUGCCCACGAGGAACUUGAUGCGGUCAUAGAAGGAGUGUAGGUUCUGCUCAACAGAGGAUUGAGCAUCA
# B11: 134121267_134126191_1650_CDS_ENSG00000145833_ENST00000354283|human|control|control (ssRNA)
# RNA: GGGAGUUCUACAGUCCGACGAUCAUAUGUCACUCUUCGAAGAUUUGUGACCCGACCACUGUUAGCGGCUAACAUGUCAAUCAUUCGACCAGGUGUGCAAACAAUAAUUUCAGCACCUCUUUUCAGCUCAGCAAUCUGCUCACUCAACAGAGGAUUGAGCAUCA
# B12: chr15:41871108:41871109:+_ENSG00000092445_ENST00000263798|hu_mus|FALSE|FALSE (ssRNA)
# RNA: GGGAGUUCUACAGUCCGACGAUCUCCACCUGCCAGACUCAGACCCUGCCUUUUGAAGUCGGAUCUCUGUAACCUUUUGUCCUUCAGCAUGCCUCAGAGCCCCACAGCCAGUUCCAGGCCUUUGCAGGGUGGGGAAUCAGGAAGCAACAGAGGAUUGAGCAUCA
# B13: 118516228_118516348_3273_CDS_ENSG00000019144_ENST00000356063|human|control|control (ssRNA)
# RNA: GGGAGUUCUACAGUCCGACGAUCGCAGGCCGAGUUGCCCCCGGUGGAGAUGCUGGUCUCCAUGCUGUCAGAGCUCUCCAGACUCAGCGUAUCAUAGGCGUGCUCACCCUCCUCCCCACGCUCCCGCCCCGCAGGCAGGUGGUGCAACAGAGGAUUGAGCAUCA
# B14: chr1:174983830:174983831:-_ENSG00000120333_ENST00000367677|hu_hu|FALSE|FALSE (ssRNA)
# RNA: GGGAGUUCUACAGUCCGACGAUCUUCUGGAGCUCAUUUACCAUGUCGCUCGCUGGAUCCCAGAAAGUUGCCCAUGGUCAGCUAAGUGACGGAAGACUAUACGACUAAGCCUCCAGCGCCGCUUCACACCACGCGGACGGGACGCAACAGAGGAUUGAGCAUCA
# B15: chr12:16048344:16048345:+_ENSG00000023734_ENST00000419869|hu_hu|hu_hu_hu_mus_True|58_58 (ssRNA)
# RNA: GGGAGUUCUACAGUCCGACGAUCAGAUCGUCCAUAAGUAAUAACCAAAAUCUCUCCUUCAGGAAUAUACUCCAUGCUACUAACAGACAUAUUAAAAUUCAGAGAUUUCACUUCUGUCAUUGUGGCAUGAUCCCAGAGCCGAACCAACAGAGGAUUGAGCAUCA
# B16: chr11:46405157:46405158:+_ENSG00000110492_ENST00000395566|hu_hu|hu_hu_hu_mus_False|88_108 (ssRNA)
# RNA: GGGAGUUCUACAGUCCGACGAUCCCCUUAGGGGUGGGGGCACUUGGUGAGAGGGACAGAGGACAGGCGUGAUUGACAGAGCUGACAGGAAGACAAAAGGCACUGGUGGGUUAUAUCUUGGGCCUGUGGGAGAGGAGGGCUCCGCAACAGAGGAUUGAGCAUCA
# B17: chr17:45705486:45705487:-_ENSMUSG00000023944_ENSMUST00000024739|mus_mus|FALSE|FALSE (ssRNA)
# RNA: GGGAGUUCUACAGUCCGACGAUCGUUGGCUGUCCAGCCAUAGGUGCUUGUCACAAUGCAGCAGGGUGAAGACACAAGCCUAUUGGAGAUUGUCACCUUUUCAACCUUCUUGUCCAAGAUCUCCUUCAUGAGCUUGCAGAGAUUCAACAGAGGAUUGAGCAUCA
# B18: chr3:179287964:179287965:+_ENSG00000136518_ENST00000429709|hu_hu|hu_hu_hu_mus_True|78_88 (ssRNA)
# RNA: GGGAGUUCUACAGUCCGACGAUCCUUGAGUGGUGAGAUGGCCUCCAUAUUCUCCCUCGGAACACGCAGGGCAUUGGUGUCUAUGUAGUAGGUGGGCCCGCCCUGCUUGCCUUUGUCACCAUCAAUCUCCAUCAUUGUACUUCCCAACAGAGGAUUGAGCAUCA
# B19: 2235456_2235766_1521_CDS_ENSG00000157933_ENST00000378536|human|control|control (ssRNA)
# RNA: GGGAGUUCUACAGUCCGACGAUCGGACGGGGAAGAGAGCGAGGACAAGGAGGAGGUGAAUUCCUCCCUGCUUUCAACUUCCACCUCCGCCUCCGAGUCCUUGUCCUCCUCUGGGGCAGCCACGGGCGCCAGCGUCUCUGGGGCCAACAGAGGAUUGAGCAUCA
# B20: chr12:96407613:96407614:-_ENSG00000111144_ENST00000228740|hu_hu|FALSE|FALSE (ssRNA)
# RNA: GGGAGUUCUACAGUCCGACGAUCCUUCCAGUCAUCAGUAGUUAUGCUCUUAUAGGAAAACUUCUCAACAUAAGCUUUUAAGAAUCCUAGGAAAAUCUCUGGUCCUCCAAGCAGUUGUUCAAGGUAAAAAAGUAAAGCAAAGCCCAACAGAGGAUUGAGCAUCA
# B21: chrX:91780989:91780990:-_ENSMUSG00000025151_ENSMUST00000026142|mus_hu|motif|central (ssRNA)
# RNA: GGGAGUUCUACAGUCCGACGAUCCUCUAGAUAGCUGUGUUUAGAAGGAAUCUGAGGCUUCAGCCUCACACAGGGGAAAGACGGCUGCGAUUGAUAGCAAUAUCCAACAUCUCACUCAACCCAGAAGAAACCAAUGGCACCAAACAACAGAGGAUUGAGCAUCA
# B22: chr1:174017691:174017692:+_ENSMUSG00000026553_ENSMUST00000135192|mus_mus|FALSE|FALSE (ssRNA)
# RNA: GGGAGUUCUACAGUCCGACGAUCAACUGGAUGACCCCAUUGUGUAAACUGGUCAGGAUCCAGGGUCUUUUAGGAUGAAAACUAAGGCCUUUGACCCGCGCGCUCUUCGUCUCGAAUUUGGUUAGCAUCCUUCAGGCCUCGGGCCAACAGAGGAUUGAGCAUCA
# Biological target: T1, UNK ZnF1-3
# Assay: nsRBNS (natural sequence RNA bind-n-seq); RBNS binding buffer (assumed for nsRBNS): 25 mM Tris pH 7.5, 150 mM KCl, 3 mM MgCl2, 0.01% Triton X-100, 500 ug/ml BSA, 20 U/ml SUPERase-In, 4 C; UNK is unkempt and MSI1 is Musashi-1; names of the RNAs are library labels; protein concentration not given here; high values mean tight binding
row,Binder,binding signal
1,B1,1.16 enrichment R
2,B2,0.541 enrichment R
3,B3,2.11 enrichment R
4,B4,1.4 enrichment R
5,B5,2.25 enrichment R
6,B6,1.04 enrichment R
7,B7,0.701 enrichment R
8,B8,0.643 enrichment R
9,B9,1.38 enrichment R
10,B10,1.13 enrichment R
11,B11,0.591 enrichment R
12,B12,1.21 enrichment R
13,B13,0.855 enrichment R
14,B14,0.714 enrichment R
15,B15,1.02 enrichment R
16,B16,2.53 enrichment R
17,B17,1.12 enrichment R
18,B18,0.577 enrichment R
19,B19,0.644 enrichment R
20,B20,1.42 enrichment R
21,B21,1.35 enrichment R
22,B22,0.939 enrichment R
